# Results: the supplement of paper PMC8728848
# This is one part of the list.
# B1: LBL-152 (Laetiporus bicolor), B0D650 (protein)
# chain: MSNEYNPPLGIAFRLCGLASDRVLFSRVSPSPEVFHHPKSEVYPDQWFVAIPGSGQNAGCYAIKSKNTGKVLFSRMSPDPRVGHIDGDGKYPDNWFKFEAGSGKYAGYFRLRAVASDTVLVSRTSTGTDTQVINYPATSAKYDDQYFTILFDHHHHHH
# Tests used:
# Test in all cases: glycan array binding signal (z-score within array); higher = stronger binding
# Conditions in all cases: glycan notation: IUPAC condensed, linker removed
# [1] = biological target: Fuc(a1-2)Gal6S(b1-3)GlcNAc
# Outline: (§1)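 From the Consortium for Functional Glycomics database, 3228 arrays were curated, keeping only those whose protein sequence was available. Binding is given as a within-array Z-score averaged across arrays sharing a protein sequence and across linkers. Negative Z-scores can be read as non-binding.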
# [2] = biological target: Fuc(a1-2)Gal6S(b1-3)GlcNAc6S
# Outline: as §1
# Fuc(a1-2)Gal6S(b1-4)Glc = biological target: Fuc(a1-2)Gal6S(b1-4)Glc
# Outline: as §1
# [3] = biological target: Fuc(a1-2)Gal6S(b1-4)Glc6S
# Outline: as §1
# Fuc(a1-2)[Gal(a1-3)]Gal = biological target: Fuc(a1-2)[Gal(a1-3)]Gal
# Outline: as §1
# [4] = biological target: Fuc(a1-2)[Gal(a1-3)]Gal(b1-3)GalNAc
# Outline: as §1
# [5] = biological target: Fuc(a1-2)[Gal(a1-3)]Gal(b1-3)GalNAc(b1-3)Gal(a1-4)Gal(b1-4)Glc
# Outline: as §1
# [6] = biological target: Fuc(a1-2)[Gal(a1-3)]Gal(b1-3)GlcNAc
# Outline: as §1
# [7] = biological target: Fuc(a1-2)[Gal(a1-3)]Gal(b1-3)GlcNAc(b1-2)Man(a1-3)[Fuc(a1-2)[Gal(a1-3)]Gal(b1-3)GlcNAc(b1-2)Man(a1-6)]Man(b1-4)GlcNAc(b1-4)GlcNAc
# Outline: as §1
# [8] = biological target: Fuc(a1-2)[Gal(a1-3)]Gal(b1-3)GlcNAc(b1-2)Man(a1-3)[Fuc(a1-2)[Gal(a1-3)]Gal(b1-3)GlcNAc(b1-2)Man(a1-6)]Man(b1-4)GlcNAc(b1-4)[Fuc(a1-6)]GlcNAc
# Outline: as §1
# [9] = biological target: Fuc(a1-2)[Gal(a1-3)]Gal(b1-3)GlcNAc(b1-3)GalNAc
# Outline: as §1
# [10] = biological target: Fuc(a1-2)[Gal(a1-3)]Gal(b1-3)GlcNAc(b1-6)GalNAc
# Outline: as §1
# [11] = biological target: Fuc(a1-2)[Gal(a1-3)]Gal(b1-4)Glc
# Outline: as §1
# [12] = biological target: Fuc(a1-2)[Gal(a1-3)]Gal(b1-4)GlcNAc
# Outline: as §1
# [13] = biological target: Fuc(a1-2)[Gal(a1-3)]Gal(b1-4)GlcNAc(b1-2)Man
# Outline: as §1
# [14] = biological target: Fuc(a1-2)[Gal(a1-3)]Gal(b1-4)GlcNAc(b1-2)Man(a1-3)[Fuc(a1-2)[Gal(a1-3)]Gal(b1-4)GlcNAc(b1-2)Man(a1-6)]Man(b1-4)GlcNAc(b1-4)GlcNAc
# Outline: as §1
# [15] = biological target: Fuc(a1-2)[Gal(a1-3)]Gal(b1-4)GlcNAc(b1-2)Man(a1-3)[Fuc(a1-2)[Gal(a1-3)]Gal(b1-4)GlcNAc(b1-2)Man(a1-6)]Man(b1-4)GlcNAc(b1-4)[Fuc(a1-6)]GlcNAc
# Outline: as §1
# [16] = biological target: Fuc(a1-2)[Gal(a1-3)]Gal(b1-4)GlcNAc(b1-3)GalNAc
# Outline: as §1
# [17] = biological target: Fuc(a1-2)[Gal(a1-3)]Gal(b1-4)GlcNAc(b1-3)[Fuc(a1-2)[Gal(a1-3)]Gal(b1-4)GlcNAc(b1-6)]GalNAc
# Outline: as §1
# [18] = biological target: Fuc(a1-2)[Gal(a1-3)]Gal(b1-4)GlcNAc(b1-6)GalNAc
# Outline: as §1
# [19] = biological target: Fuc(a1-2)[Gal(a1-3)]Gal(b1-4)[Fuc(a1-3)]Glc
# Outline: as §1
# [20] = biological target: Fuc(a1-2)[Gal(a1-3)]Gal(b1-4)[Fuc(a1-3)]GlcNAc
# Outline: as §1
# [21] = biological target: Fuc(a1-2)[Gal(a1-3)]Gal(b1-4)[Fuc(a1-3)]GlcNAc(b1-3)GalNAc
# Outline: as §1
# [22] = biological target: Fuc(a1-2)[Gal(a1-4)]Gal(b1-4)GlcNAc
# Outline: as §1
# [23] = biological target: Fuc(a1-2)[GalNAc(a1-3)]Gal
# Outline: as §1
# [24] = biological target: Fuc(a1-2)[GalNAc(a1-3)]Gal(b1-3)GalNAc(a1-3)[Fuc(a1-2)]Gal(b1-4)GlcNAc
# Outline: as §1
# [25] = biological target: Fuc(a1-2)[GalNAc(a1-3)]Gal(b1-3)GalNAc(b1-3)Gal(a1-4)Gal(b1-4)Glc
# Outline: as §1
# [26] = biological target: Fuc(a1-2)[GalNAc(a1-3)]Gal(b1-3)GlcNAc
# Outline: as §1
# [27] = biological target: Fuc(a1-2)[GalNAc(a1-3)]Gal(b1-3)GlcNAc(b1-2)Man(a1-3)[Fuc(a1-2)[GalNAc(a1-3)]Gal(b1-3)GlcNAc(b1-2)Man(a1-6)]Man(b1-4)GlcNAc(b1-4)GlcNAc
# Outline: as §1
# [28] = biological target: Fuc(a1-2)[GalNAc(a1-3)]Gal(b1-3)GlcNAc(b1-2)Man(a1-3)[Fuc(a1-2)[GalNAc(a1-3)]Gal(b1-3)GlcNAc(b1-2)Man(a1-6)]Man(b1-4)GlcNAc(b1-4)[Fuc(a1-6)]GlcNAc
# Outline: as §1
# [29] = biological target: Fuc(a1-2)[GalNAc(a1-3)]Gal(b1-3)GlcNAc(b1-3)GalNAc
# Outline: as §1
# [30] = biological target: Fuc(a1-2)[GalNAc(a1-3)]Gal(b1-3)GlcNAc(b1-6)GalNAc
# Outline: as §1
# [31] = biological target: Fuc(a1-2)[GalNAc(a1-3)]Gal(b1-4)Glc
# Outline: as §1
# [32] = biological target: Fuc(a1-2)[GalNAc(a1-3)]Gal(b1-4)GlcNAc
# Outline: as §1
# [33] = biological target: Fuc(a1-2)[GalNAc(a1-3)]Gal(b1-4)GlcNAc(b1-2)Man
# Outline: as §1
# [34] = biological target: Fuc(a1-2)[GalNAc(a1-3)]Gal(b1-4)GlcNAc(b1-2)Man(a1-3)[Fuc(a1-2)[GalNAc(a1-3)]Gal(b1-4)GlcNAc(b1-2)Man(a1-6)]Man(b1-4)GlcNAc(b1-4)GlcNAc
# Outline: as §1
# [35] = biological target: Fuc(a1-2)[GalNAc(a1-3)]Gal(b1-4)GlcNAc(b1-2)Man(a1-3)[Fuc(a1-2)[GalNAc(a1-3)]Gal(b1-4)GlcNAc(b1-2)Man(a1-6)]Man(b1-4)GlcNAc(b1-4)[Fuc(a1-6)]GlcNAc
# Outline: as §1
# [36] = biological target: Fuc(a1-2)[GalNAc(a1-3)]Gal(b1-4)GlcNAc(b1-3)Gal(b1-4)GlcNAc
# Outline: as §1
# [37] = biological target: Fuc(a1-2)[GalNAc(a1-3)]Gal(b1-4)GlcNAc(b1-3)Gal(b1-4)GlcNAc(b1-3)Gal(b1-4)GlcNAc
# Outline: as §1
# [38] = biological target: Fuc(a1-2)[GalNAc(a1-3)]Gal(b1-4)GlcNAc(b1-3)GalNAc
# Outline: as §1
# [39] = biological target: Fuc(a1-2)[GalNAc(a1-3)]Gal(b1-4)GlcNAc(b1-3)[Fuc(a1-2)[GalNAc(a1-3)]Gal(b1-4)GlcNAc(b1-6)]GalNAc
# Outline: as §1
# [40] = biological target: Fuc(a1-2)[GalNAc(a1-3)]Gal(b1-4)GlcNAc(b1-6)GalNAc
# Outline: as §1
# [41] = biological target: Fuc(a1-2)[GalNAc(a1-3)]Gal(b1-4)[Fuc(a1-3)]GlcNAc
# Outline: as §1
# [42] = biological target: Fuc(a1-2)[GalNAc(a1-3)]Gal(b1-4)[Fuc(a1-3)]GlcNAc(b1-3)GalNAc
# Outline: as §1
# [43] = biological target: Fuc(a1-2)[GalNAc(a1-4)]Gal(b1-4)GlcNAc
# Outline: as §1
binder,measurement,setting,value
B1,glycan array binding signal (z-score),[1],-0.153
same,glycan array binding signal (z-score),[2],-0.15
same,glycan array binding signal (z-score),Fuc(a1-2)Gal6S(b1-4)Glc,-0.146
same,glycan array binding signal (z-score),[3],-0.158
same,glycan array binding signal (z-score),Fuc(a1-2)[Gal(a1-3)]Gal,-0.145
same,glycan array binding signal (z-score),[4],-0.146
same,glycan array binding signal (z-score),[5],-0.154
same,glycan array binding signal (z-score),[6],-0.153
same,glycan array binding signal (z-score),[7],-0.149
same,glycan array binding signal (z-score),[8],-0.155
same,glycan array binding signal (z-score),[9],-0.155
same,glycan array binding signal (z-score),[10],-0.156
same,glycan array binding signal (z-score),[11],-0.157
same,glycan array binding signal (z-score),[12],-0.152
same,glycan array binding signal (z-score),[13],-0.153
same,glycan array binding signal (z-score),[14],-0.147
same,glycan array binding signal (z-score),[15],-0.151
same,glycan array binding signal (z-score),[16],-0.157
same,glycan array binding signal (z-score),[17],-0.152
same,glycan array binding signal (z-score),[18],-0.151
same,glycan array binding signal (z-score),[19],-0.153
same,glycan array binding signal (z-score),[20],-0.155
same,glycan array binding signal (z-score),[21],-0.151
same,glycan array binding signal (z-score),[22],-0.136
same,glycan array binding signal (z-score),[23],-0.151
same,glycan array binding signal (z-score),[24],-0.159
same,glycan array binding signal (z-score),[25],-0.157
same,glycan array binding signal (z-score),[26],-0.161
same,glycan array binding signal (z-score),[27],-0.156
same,glycan array binding signal (z-score),[28],-0.157
same,glycan array binding signal (z-score),[29],-0.15
same,glycan array binding signal (z-score),[30],-0.157
same,glycan array binding signal (z-score),[31],-0.157
same,glycan array binding signal (z-score),[32],-0.156
same,glycan array binding signal (z-score),[33],-0.156
same,glycan array binding signal (z-score),[34],-0.156
same,glycan array binding signal (z-score),[35],-0.156
same,glycan array binding signal (z-score),[36],-0.157
same,glycan array binding signal (z-score),[37],-0.078
same,glycan array binding signal (z-score),[38],-0.155
same,glycan array binding signal (z-score),[39],-0.155
same,glycan array binding signal (z-score),[40],-0.16
same,glycan array binding signal (z-score),[41],-0.153
same,glycan array binding signal (z-score),[42],-0.149
same,glycan array binding signal (z-score),[43],-0.156
